Screen size: about 360,000 compounds; about 25,000 (6.9%) were called active. This list was built around the results that the source calls inconclusive (neither active nor inactive); the mix of calls is not that of the screen. The call rests on the fitted dose curve; in most records, active means well fitted inhibition curve with a large enough effect; inconclusive means small, poorly fitted or top-dose-only effect; inactive means flat fitted curve, though single readings scatter. Potencies beside an inconclusive call are fits to weak or partial responses and may not hold up.
Molecular target: Luciferin 4-monooxygenase (Photinus pyralis) (UniProt P08659)
Test: qHTS profiling assay for firefly luciferase inhibitor/activator using purifed enzyme and Km concentrations of substrates (counterscreen for miR-21 project); further: nearly all actives have a fitted effect of over 55% in size;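 on activity change, negative = inhibition: plate controls were vehicle for no effect and reference inhibitor for full effect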
Details: purified FLuc, luminescence inhibition; series mostly up to 57.5 µM; activity change, negative = inhibition: at the top concentration
Outline: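 Biochemical qHTS of compounds, final roughly 60 µM downward over six points, against 10 nM purified firefly luciferase using Km concentrations of substrates (10 uM D-luciferin, 10 uM ATP) in Tris acetate pH 7.5 buffer; luminescence output.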
Potency means the concentration at half of the fitted maximal effect; tags describe the fitted curve by direction and shape.

Chain of UniProt P08659 (P08659 whole entry, looked up): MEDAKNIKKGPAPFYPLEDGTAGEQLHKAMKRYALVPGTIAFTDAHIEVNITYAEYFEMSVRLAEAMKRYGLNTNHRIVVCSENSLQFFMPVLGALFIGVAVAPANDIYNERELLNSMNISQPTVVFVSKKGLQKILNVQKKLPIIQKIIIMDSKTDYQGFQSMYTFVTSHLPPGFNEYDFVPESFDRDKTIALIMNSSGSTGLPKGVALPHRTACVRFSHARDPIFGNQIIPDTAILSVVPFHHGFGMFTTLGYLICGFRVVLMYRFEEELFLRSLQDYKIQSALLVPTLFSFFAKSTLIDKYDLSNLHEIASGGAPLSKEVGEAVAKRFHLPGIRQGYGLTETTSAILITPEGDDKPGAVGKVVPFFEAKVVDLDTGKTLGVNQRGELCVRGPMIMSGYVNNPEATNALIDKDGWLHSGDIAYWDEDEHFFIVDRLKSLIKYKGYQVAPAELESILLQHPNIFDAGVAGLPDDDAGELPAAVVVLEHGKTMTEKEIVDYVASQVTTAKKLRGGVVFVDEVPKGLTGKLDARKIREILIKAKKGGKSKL

| SMILES | Potency | activity change, negative = inhibition |
| --- | --- | --- |
| CCc1ccc(C(=O)CSc2nc3cc(S(=O)(=O)N4CCOCC4)ccc3n2CC)cc1 | active: 13.5 µM | – |
| O=C(Cc1ccccc1F)Nc1nc(-c2ccc(F)cc2)cs1 | active: 10.7 µM | – |
| CCN(CC(=O)Nc1ccc(NC(C)=O)cc1)C(=O)c1n[nH]c(=O)c2ccccc12 | inconclusive: 37.9 µM [inhibitor, partial curve, poor fit] | – |
| O=C(N/N=C/c1ccc(O)c(Br)c1)c1cc2c(ccc3ccccc32)o1 | inconclusive: 0.601 µM [inhibitor, full curve, poor fit] | – |
| Fc1ccc(-c2csc(-c3ccncc3)n2)cc1 | inconclusive: 8.49 µM [inhibitor, partial curve] | – |
| CCc1nc(NC(=O)c2sc(C)nc2C)sc1C(=O)OC | inconclusive: 30.1 µM [inhibitor, single point] | – |
| C=CCNC(=S)/N=c1\sccn1C | – | inactive: -8.69% |
| CCn1nc(C(=O)Nc2ccc3nc(C)sc3c2)c2ccccc2c1=O | inconclusive: 23.9 µM [inhibitor, partial curve] | – |
| Cc1ccnc(NC(=O)c2cc(S(=O)(=O)NCc3ccccc3)ccc2C)c1 | inconclusive: 23.9 µM [inhibitor, single point] | – |
| CCCSC1=N/C(=C\c2ccc([N+](=O)[O-])o2)C(=O)S1 | inconclusive: 21.3 µM [inhibitor, partial curve, poor fit] | – |
| CCOC(=O)Nc1cccc(Nc2ccccc2)c1 | inconclusive: 23.9 µM [inhibitor, partial curve, poor fit] | – |
| Cc1ccccc1NS(=O)(=O)c1ccc2[nH]cc(C(=O)NCCc3ccccc3)c(=O)c2c1 | inconclusive: 30.1 µM [inhibitor, partial curve, poor fit] | – |
| COc1ccc(C2=NN(S(C)(=O)=O)C(c3ccc4nccnc4c3)C2)cc1 (configuration not stated) | inconclusive: 21.3 µM [inhibitor, partial curve] | – |
| CCN(CC)c1ccc(C(=O)N/N=C/c2ccccc2OC(F)F)cc1 | inconclusive: 26.9 µM [inhibitor, single point] | – |
| N/C(Cc1ccc(Cl)cc1)=N\OC(=O)c1ccccc1 | inconclusive: 21.3 µM [inhibitor, single point] | – |
| CC(=O)c1ccc(OCc2cc(C(=O)N3CCN(c4ccccc4)CC3C)no2)cc1 (configuration not stated) | active: 8.49 µM | – |
| CC(C)N1CCc2c(sc(NC(=O)c3ccco3)c2C(N)=O)C1 | inconclusive: 26.9 µM [inhibitor, partial curve, poor fit] | – |
| O=C(CCCC(=O)c1ccccc1)NCc1ccccc1 | inconclusive: 30.1 µM [inhibitor, single point] | – |
| CCOc1ccc(NC(=O)N2CC3CCCN3c3ccccc32)cc1 (configuration not stated) | – | inactive: -12.8% |
| CCCCS/C(N)=N/N=C/c1cc(C)ccc1O | active: 16.9 µM | – |
| CCN(CC)S(=O)(=O)c1ccc(NC(=O)COC(=O)c2cc(S(=O)(=O)Nc3ccc(OC)cc3)ccc2O)cc1 | inconclusive: 23.9 µM [inhibitor, partial curve, poor fit] | – |

| SMILES | Potency | activity change, negative = inhibition |
| --- | --- | --- |
| O=C(c1cc2ccccc2o1)n1nnc2ccccc21 | inconclusive: 30.1 µM [inhibitor, single point] | – |
| Cc1cccc(C(=O)N/N=C/c2ccoc2)c1 | inconclusive: 19 µM [inhibitor, partial curve] | – |
| COc1ccc(-c2ccc(-c3noc(C)n3)c(OC)n2)cc1 | inconclusive: 1.9 µM [inhibitor, partial curve, poor fit] | – |
| Fc1ccc(-c2nc3ccncc3[nH]2)cc1 | inconclusive: 12 µM [inhibitor, partial curve] | – |
| Cc1cc2c(cc1S(=O)(=O)CCC(=O)Nc1cccc(C(F)(F)F)c1)OCC(=O)N2 | – | inactive: 1.65% |
| O=C(Nc1ccccc1)Nc1ccc(Cl)c(S(=O)(=O)N2CCOCC2)c1 | inconclusive: 21.3 µM [inhibitor, single point] | – |
| CNC(=S)N/N=C/c1c2ccccc2c(Cl)c2ccccc12 | – | inactive: -2.42% |
| COc1ccc2c(CC(=O)N[C@@H](Cc3ccccc3)C(=O)O)cc(=O)oc2c1C | inconclusive: 30.1 µM [inhibitor, partial curve, poor fit] | – |
| Cn1c(COc2ccccc2Br)nc2ccccc21 | active: 6.75 µM | – |
| CCc1cccc(NC(=O)CSc2nnc(Cc3ccc(OC)cc3)c(=O)[nH]2)c1 | inconclusive: 23.9 µM [inhibitor, partial curve, poor fit] | – |
| COc1ccc(-c2cc(=O)oc3cc(OCC(C)=O)ccc23)cc1 | inconclusive: 37.9 µM [inhibitor, partial curve, poor fit] | – |
| Cc1nc(N=Nc2ccc(O)cc2)n[nH]1 | active: 16.9 µM | – |
| COc1cccc(NC(=O)CN(C)C(=O)c2cc3c(s2)CCCC3)c1 | inconclusive: 26.9 µM [inhibitor, single point] | – |
| CC(C)C(Sc1nc(-c2ccccc2)cc(-c2ccccc2)c1C#N)C(=O)O (configuration not stated) | inconclusive: 30.1 µM [inhibitor, partial curve, poor fit] | – |
| O=C1N=C(N2CCOCC2)SC1=C1CCCCC1 | inconclusive: 26.9 µM [inhibitor, partial curve, poor fit] | – |
| CCOc1ccccc1NC(=O)CCC(=O)Nc1ccc2nc(N3CCN(C)CC3)cc(C)c2c1 | inconclusive: 23.9 µM [inhibitor, partial curve] | – |
| COc1ccc(CNC(=O)c2cc(Nc3ccccc3C)nc3ccccc23)cc1 | inconclusive: 26.9 µM [inhibitor, single point] | – |
| Cc1cccc(C(=O)Nc2ccc(Oc3cnccn3)cc2)c1 | inconclusive: 30.1 µM [inhibitor, single point] | – |
| CCN(CC)C(=O)c1c[nH]c2ccc(S(=O)(=O)Nc3cc(C)cc(C)c3)cc2c1=O | inconclusive: 15.1 µM [inhibitor, partial curve, poor fit] | – |
| COc1ccc(Cl)cc1NC(=O)CSc1cn(CC(=O)N2CCCCC2)c2ccccc12 | inconclusive: 10.7 µM [inhibitor, partial curve, poor fit] | – |
| CCn1c(SCC(=O)c2ccc3ccccc3c2)nnc1-c1ccco1 | inconclusive: 23.9 µM [inhibitor, single point] | – |

— PubChem BioAssay AID588342 (National Center for Advancing Translational Sciences (NCATS), 2011)
